Results from the supplement of paper PMC3334620.
The full ranking holds about 33,000 sequences; the median of “E-score (-0.5 to 0.5)” is about -0.056, and the highest 2% start at about 0.38. This is one part of the list.

Target: Stb4 (UniProt P50104)
Assay: PBM E-score (8-mer binding enrichment) (E-score (-0.5 to 0.5)); higher = stronger / more preferred TF binding; most listed sequences are background and not binding sites
Conditions: protein concentration: 200 nM; construct: GST-DNA-binding domain
In short: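 Using PURExpress in vitro transcription/translation, GST-tagged yeast transcription factors were made in full-length or DNA-binding-domain form. These were applied at about 100-200 nM to double-stranded universal all-10-mer Agilent arrays, and bound protein was detected with fluorescent anti-GST. Scans were normalised with masliner before the Universal PBM Analysis Suite assigned E-scores to ungapped eight-base words pooled with their reverse complements.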

Row | Sequence | PBM E-score
1 | AAGTATGC | -0.196
2 | GCTTACCC | 0.177
3 | GCTTAATA | -0.103
4 | ATGCCGTC | 0.0989
5 | ACGGGTGA | 0.179
6 | CGTCTTCA | -0.135
7 | GCCCACGC | -0.168
8 | AAATGTAC | -0.0404
9 | ACGAGTCA | -0.294
10 | CATAATTC | -0.0122
11 | TAAACTAA | -0.0455
12 | CGAAGAAA | 0.111
13 | AGTGATCC | 0.0745
14 | AAATTCCG | 0.387
15 | TGCCGGAA | 0.419
16 | GATCCACA | 0.0527
17 | GCTGTTTA | -0.0043
18 | TCACACCA | -0.104
19 | GACGACTA | -0.2
20 | ACACTATC | 0.0635
21 | AGCCGGTC | 0.0773
22 | CCTCTCCA | -0.309
23 | CAGAATGC | 0.0966
24 | CGTAGTGC | -0.204
25 | CGAGAACA | 0.03

Row | Sequence | PBM E-score
26 | GATATGCC | 0.0428
27 | CCGAGCAA | 0.406
28 | CAGATAGA | -0.184
29 | CCGCACCA | 0.125
30 | CCGTGGTC | 0.0825
31 | GGAAGCCA | 0.175
32 | CCGGGAGA | 0.291
33 | GTCTTAAC | -0.282
34 | CAATTTAC | -0.00625
35 | CCCCAGTA | -0.128
36 | CCGAAACG | 0.373
37 | CCAAGAGC | -0.131
38 | ATAGGCTC | 0.0035
39 | CTTCTTGC | -0.0322
40 | ACGCCCCA | 0.0489
41 | CGCCAGCC | 0.132
42 | ACACTGGC | -0.049
43 | GGGAAGCA | 0.0636
44 | CGGCGGAC | 0.272
45 | AGTATAGA | 0.0645
46 | AATGTACG | -0.0886
47 | CCTTCTAC | -0.133
48 | AAGACAAT | -0.0577
49 | ACAGTTCC | 0.294
50 | CGCGGCCG | 0.136

Row | Sequence | PBM E-score
51 | GTGCTTCA | -0.0371
52 | ACTTGGGG | -0.0254
53 | GCAACTGC | -0.036
54 | CCAGAGAA | -0.132
55 | AATGCCCA | -0.139
56 | ATCTCGGC | 0.442
57 | GCCCATTA | -0.168
58 | ACAATAAG | -0.121
59 | CAAAAAAC | -0.0375
60 | GACAAACC | 0.0235
61 | TACAGAGA | -0.134
62 | CGTTCCAG | -0.0906
63 | AAGTAGAG | -0.21
64 | GGGCTGAC | 0.0244
65 | ACGGGTAC | 0.28
66 | CTATTACC | 0.143
67 | CCAGTGGC | -0.211
68 | TAAAATGA | 0.0974
69 | AAGGTCGG | 0.251
70 | CCCACTAA | -0.101
71 | ACACATCT | -0.0649
72 | AATAAGTG | -0.224
73 | AGCTTCTA | -0.0169
74 | AGAAATGA | -0.126
75 | TACCAGAA | -0.0535

Row | Sequence | PBM E-score
76 | ATGACCCC | 0.00736
77 | CGTTCGAC | -0.218
78 | ACCGACTC | 0.2
79 | CGGGTGTA | 0.334
80 | TACAGCGA | -0.212
81 | GCTTTCCC | 0.0481
82 | CTTGTACC | -0.00495
83 | AAGGTTAC | 0.0187
84 | AAATGGCT | -0.0926
85 | ATTCAATG | -0.0412
86 | ACTACTAC | 0.0543
87 | ATCGTCTC | -0.00579
88 | TGCATGCA | -0.292
89 | AGCTCGTA | -0.189
90 | CAGAGTCC | -0.108
91 | GAATCCTC | -0.00312
92 | CCCAGCTC | -0.0394
93 | CGTGGCAC | -0.178
94 | ACGTACAA | -0.0237
95 | CTTTAGGC | -0.188
96 | CCCTAGCC | -0.0141
97 | GCCCGGCA | 0.192
98 | CTCAACGA | -0.106
99 | ATGACGCA | -0.183
100 | ATGGGAGG | -0.0739

Row | Sequence | PBM E-score
101 | CCTCGTAG | -0.251
102 | GTACTTGA | -0.079
103 | CGCGGCAA | 0.303
104 | ATTTCATA | -0.0793
105 | ACTACATG | -0.106
106 | GTCAGGCA | -0.118
107 | ATCTACGG | 0.149
108 | CGGATACG | 0.409
109 | ACAAAGAG | -0.197
110 | CAGTCGGC | 0.228
111 | CCAGCCAA | -0.108
112 | AGCTCACT | -0.248
113 | CGTTGCTA | -0.181
114 | AGTTCGTG | -0.157
115 | AGCTATCG | -0.078
116 | CTTAACGA | -0.026
117 | CGTGTTGA | -0.0328
118 | AGCGGCTA | 0.186
119 | ATTGCGCC | -0.0115
120 | AGACATAG | -0.0369
121 | TCAATGAA | -0.132
122 | AGGTTAGC | -0.0813
123 | AGAACACA | -0.255
124 | CGAACATA | 0.0507
125 | CTATGTGA | -0.161

Row | Sequence | PBM E-score
126 | GGATCCCA | 0.102
127 | TAGACCAA | -0.144
128 | GCACCTAC | -0.0284
129 | CAGTCAAG | -0.249
130 | CAGTGATG | -0.372
131 | AAAAAATC | 0.0808
132 | ACTTGGAC | 0.039
133 | GGGGGGAC | -0.211
134 | CCGCTGAG | -0.064
135 | ACCTGCCG | 0.221
136 | ACCTTCTC | -0.0577
137 | TGCGTAAA | -0.191
138 | ATGTCCAA | -0.0387
139 | TATGCTCA | 0.00047
140 | GCTGTGAA | -0.169
141 | CCTTGCAA | -0.252
142 | ACAGGTTA | -0.221
143 | CCCAACCA | -0.0358
144 | ACGGGAGA | 0.12
145 | ATTCAAAC | 0.015
146 | AGTAGTCG | -0.0431
147 | AGGAGTAC | -0.133
148 | CACCATTC | -0.147
149 | ACCAATGA | -0.264
150 | AATTTTAT | 0.159

Row | Sequence | PBM E-score
151 | ATAGTTGG | -0.056
152 | AGTCCGAA | 0.332
153 | AATAAGAG | 0.154
154 | CCCAAGGG | -0.204
155 | GTGACGAA | -0.0785
156 | ACCGGGAC | 0.241
157 | GATAATAA | 0.107
158 | CGGAAGTA | 0.419
159 | CGGGCATC | 0.0417
160 | GATATTGC | 0.0272
161 | CCCCACCG | 0.126
162 | GCCGAAGC | 0.385
163 | AGGTGCCG | 0.346
164 | CAGTAAGC | 0.00856
165 | CGCTAAAC | 0.0319
166 | ATGCCCAG | 0.0828
167 | CCGTAGAG | 0.0108
168 | GTTCACCA | -0.0785
169 | AATTCATC | 0.0251
170 | AGCCCCAG | -0.0794
171 | AATGAGCA | -0.0677
172 | GAAAACCC | 0.0948
173 | CGTTCTTC | 0.036
174 | GCGAAGAC | 0.022
175 | ATACGTCA | 0.00039

Row | Sequence | PBM E-score
176 | AGCGGTCG | 0.0108
177 | ACCTCCCA | -0.306
178 | ATGTTCTA | -0.0115
179 | AAACTTGC | -0.00659
180 | CCTTATTA | -0.0382
181 | AAGGCATT | -0.0889
182 | ACCCACTC | -0.0452
183 | CCCCAGAG | -0.188
184 | AATTGACT | -0.0473
185 | CAGGACTC | -0.113
186 | AAAGGTGT | 0.11
187 | CACGTACC | -0.0431
188 | ACCAGCCA | -0.0271
189 | ATCGGCCA | 0.0548
190 | GACGACGC | -0.199
191 | CGTGTCAC | 0.0483
192 | GGCTGCTA | -0.093
193 | GACCAATA | -0.12
194 | AGTGCCAT | -0.0804
195 | CCGCCCTC | 0.239
196 | GCACTAGC | 0.0133
197 | CCGTCGGA | 0.397
198 | CAAGTTTC | -0.0496
199 | ACCATGCT | -0.0747
200 | CTAGCTGC | -0.171

Row | Sequence | PBM E-score
201 | GACTGACC | -0.17
202 | ACCCACAA | 0.0175
203 | AGAGCAGC | -0.148
204 | CAACTCGG | 0.334
205 | TCCATTCA | -0.0703
206 | ACTAGCAG | -0.298
207 | CTGTAGTC | -0.0677
208 | AGCTCTAC | -0.192
209 | GAATTCCC | 0.215
210 | CCTTGCCA | -0.161
211 | ATACTAAG | -0.115
212 | ATGCTGCC | -0.00862
213 | CCGAGAAA | 0.451
214 | GAAGCGCA | 0.082
215 | GCCTCTAC | -0.144
216 | GGTAATAC | 0.222
217 | ATAAGTTA | -0.0932
218 | AGGGTCAA | -0.0503
219 | CCAGCAGC | -0.212
